# The full ranking holds about 33,000 sequences; the median of “E-score (-0.5 to 0.5)” is about -0.054, and the highest 2% start at about 0.35. The list shows a part of the results.
# Biological target: T1, Stb5 (UniProt P38699)
# T1 sequence: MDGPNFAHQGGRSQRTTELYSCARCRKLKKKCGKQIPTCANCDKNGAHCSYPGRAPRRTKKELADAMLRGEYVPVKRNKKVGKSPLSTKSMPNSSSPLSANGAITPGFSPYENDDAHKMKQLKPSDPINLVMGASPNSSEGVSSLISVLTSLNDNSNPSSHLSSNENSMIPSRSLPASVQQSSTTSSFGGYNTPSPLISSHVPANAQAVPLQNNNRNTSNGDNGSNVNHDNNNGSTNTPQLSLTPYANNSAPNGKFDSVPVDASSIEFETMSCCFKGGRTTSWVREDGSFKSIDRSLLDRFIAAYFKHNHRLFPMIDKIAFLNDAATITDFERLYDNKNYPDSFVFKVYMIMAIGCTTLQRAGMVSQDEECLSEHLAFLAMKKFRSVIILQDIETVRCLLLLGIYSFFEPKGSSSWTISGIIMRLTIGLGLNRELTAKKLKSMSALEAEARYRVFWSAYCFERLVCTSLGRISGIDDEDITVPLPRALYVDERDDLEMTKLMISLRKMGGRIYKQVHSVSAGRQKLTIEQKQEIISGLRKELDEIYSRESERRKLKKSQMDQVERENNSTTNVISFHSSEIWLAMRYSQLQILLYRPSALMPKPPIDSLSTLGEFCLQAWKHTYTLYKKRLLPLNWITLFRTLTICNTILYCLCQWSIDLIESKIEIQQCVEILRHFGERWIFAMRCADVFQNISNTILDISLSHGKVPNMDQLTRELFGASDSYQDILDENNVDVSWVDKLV
# Experiment: PBM E-score (8-mer binding enrichment) (E-score (-0.5 to 0.5)); higher = stronger / more preferred TF binding; most listed sequences are background and not binding sites
# Details: protein concentration: 200 nM; construct: GST-full length
# Procedure: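 Universal 'all 10-mer' protein binding microarrays (Agilent AMADID 015681) probed with GST-tagged S. cerevisiae TFs (full-length or DBD) made by in vitro transcription/translation (PURExpress), about 100-200 nM. Bound TF was detected with fluorescent anti-GST. Each ungapped 8-mer (which stands for itself and its reverse complement) is scored by the PBM enrichment score (E-score), a modified Wilcoxon-Mann-Whitney statistic from -0.5 to +0.5, computed with the Universal PBM Analysis Suite. Scale: above 0.35 generally sequence-specific binding.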
row,Sequence,PBM E-score
1,CAACACAC,-0.151
2,GACAGAGC,-0.0684
3,AGGGAAAA,0.0254
4,AAAAAGGG,-0.145
5,AGAGGGTC,-0.139
6,AACTGGGA,-0.197
7,GCTACCCA,-0.0864
8,ATAAGCCC,0.406
9,GGATACGA,-0.106
10,ATATACGG,0.0992
11,CCCCAAAA,-0.116
12,CCTAATAA,-0.0384
13,CTTCGTAA,-0.185
14,CATCTAGG,-0.139
15,ATGATAAA,0.0679
16,CCTCAGGA,-0.265
17,CCTTCTGA,-0.193
18,ATCTAGAA,-0.13
19,ACTCTTTC,-0.0355
20,GCTCGCAA,-0.294
21,AAAACCCA,-0.0369
22,ACTGGGTG,-0.289
23,ACTCGATG,-0.179
24,CGCAGGGA,-0.14
25,CAGGCCTG,-0.172

row,Sequence,PBM E-score
1,AGACCGAA,0.236
2,GAATAGAA,-0.13
3,CTGCTAAG,-0.102
4,GATATCGC,0.025
5,ACGCATGG,-0.139
6,ACGTACGG,0.0813
7,GTGGGTCA,-0.168
8,AAGGCATA,-0.31
9,AAGGCAGT,-0.286
10,AAGCCGTA,-0.0329
11,CACCTGTA,-0.208
12,GGAGGCAC,0.113
13,ACTTACCG,0.195
14,ATACAAAG,0.0452
15,ACACAACG,-0.0277
16,AATCATTC,-0.155
17,ATCGGTGC,0.324
18,AACTCGCC,-0.191
19,ACTAGACC,0.0765
20,CGAGGGCA,-0.123
21,GCACACGA,-0.203
22,ATCGCTAA,-0.0771
23,GCTCTGTA,-0.13
24,AGTAAAAA,-0.039
25,ATCTCCTC,-0.0121

row,Sequence,PBM E-score
1,CTACGCTC,-0.0412
2,AGTAGGGA,-0.175
3,ACGGGGGG,0.0225
4,AATATTCC,0.14
5,ACCACCGT,0.354
6,AATGAACC,-0.0171
7,CGGCGCAC,0.24
8,CCGAATGA,0.172
9,AGCCTCAC,-0.269
10,GCGCCCCC,-0.0157
11,CCGTCGAG,0.23
12,ATTTTGCG,-0.0255
13,AAATAATT,0.0628
14,AAGGGTTA,-0.109
15,ATACGTTC,-0.11
16,CAAATCGA,-0.301
17,ACTCTATC,-0.0905
18,GGTGCTTA,0.233
19,ACCCGGCA,0.2
20,GACGCCGC,0.406
21,CAACAAAG,-0.134
22,CCGCAATA,0.245
23,GATACGAA,-0.192
24,ACAGTACG,-0.197
25,ATGCGCAT,-0.133

row,Sequence,PBM E-score
1,ATCGGGCG,0.186
2,CGATGAGC,-0.031
3,AATAGTAC,-0.0709
4,CGTACGAG,-0.0856
5,CGTTTGAA,0.024
6,AAGGTGGC,-0.235
7,CTATGAAG,-0.0616
8,GCGTGAAC,-0.0471
9,ACAGGCTC,-0.0716
10,ATTGCTAG,-0.201
11,GGAGCTCA,-0.064
12,GGGGTAAC,0.177
13,CGGTTCAA,0.178
14,AGCGTGGA,-0.0775
15,GCCAGGGA,-0.224
16,ATCACAAA,-0.101
17,CCGTTAAA,0.155
18,AGTCCTTA,-0.262
19,CTCAGAAC,-0.191
20,CACAGCCG,0.0932
21,AACATCGA,-0.0388
22,AGAAGTCA,-0.161
23,ATACTGTC,-0.134
24,CTCCTGCA,-0.176
25,AGGCGCGC,0.0846

row,Sequence,PBM E-score
1,ATGTTTAA,-0.149
2,AGAGAACG,-0.224
3,CGGCTACG,0.115
4,ACAAAGGG,-0.117
5,GAGTCTAA,-0.1
6,CGACAGAA,0.0516
7,CGTGTTAA,-0.191
8,GGCACACA,-0.0391
9,CATCCGAG,-0.0144
10,CGTGCCAC,-0.0488
11,GCTTTCAA,-0.175
12,CAGTCCAC,-0.204
13,CCAGGTAG,-0.209
14,CTTCAAAG,-0.124
15,ATCAGGAT,-0.0766
16,GCTTATCC,0.019
17,CAATTCGA,-0.187
18,ATGTACAG,-0.179
19,CGACGTAG,-0.00852
20,ATCCGGAT,0.223
21,AGAGATGC,-0.137
22,ATGTCCAG,-0.117
23,AGAATTTC,-0.209
24,ATCCGGTA,0.159
25,ATTTGAAA,-0.0141

row,Sequence,PBM E-score
1,ACAACCCT,-0.328
2,ACCGTACG,0.091
3,GGATCGAC,0.0228
4,CCAAAGGA,-0.174
5,ACATCAAA,0.0275
6,CTTACCGC,0.193
7,AGACGCAG,-0.114
8,GGACCGCA,0.188
9,ACTCAACA,-0.134
10,CGTGAGGA,-0.106
11,CTACCAAC,-0.148
12,AGTTACCC,0.0748
13,GACGCTGC,-0.00518
14,GCCAATGA,-0.261
15,CAGTTTTA,0.0314
16,ACTAAAGA,-0.156
17,ACCCTAGA,-0.348
18,GTAGTTCA,-0.0618
19,CAAGGCAC,-0.179
20,CTGTGGAC,-0.228
21,CCCCGGGC,0.265
22,GTACCTGA,-0.0737
23,TATAAGCA,-0.0421
24,AAGCACTG,-0.188
25,AACTCCTA,0.0494

row,Sequence,PBM E-score
1,AGATATTG,-0.0198
2,GAGGACTC,-0.22
3,CCGTTTGC,0.233
4,AACCTGAT,-0.217
5,AATACTGT,-0.135
6,CACCGGCG,0.417
7,GGCAGAGA,-0.156
8,AATATAAG,0.0277
9,CCAGCTTA,-0.0556
10,TGACGCAA,-0.174
11,AACTGCAT,-0.354
12,CAATCCTC,-0.193
13,CGGCCATC,0.157
14,ACGAATCA,-0.0604
15,AATATGCT,0.00961
16,AGAAGTTG,-0.303
17,AGTGGGGG,-0.114
18,ATGGAGCC,-0.0717
19,TAATGTGA,-0.149
20,CTATATAA,0.103
21,CAGCCAAC,-0.287
22,CGGACCCA,0.381
